Hit rate of the full screen: of about 45,000 compounds, about 65 (0.1%) were called active. Calls come from the whole dose curve; as a rule, active = well fitted activation curve with a large enough effect; inconclusive = small, poorly fitted or top-dose-only effect; inactive = no such curve, though single readings can be large or run the other way. The list shows a part of the results.

Chain of UniProt P54803 (P54803 whole entry, looked up): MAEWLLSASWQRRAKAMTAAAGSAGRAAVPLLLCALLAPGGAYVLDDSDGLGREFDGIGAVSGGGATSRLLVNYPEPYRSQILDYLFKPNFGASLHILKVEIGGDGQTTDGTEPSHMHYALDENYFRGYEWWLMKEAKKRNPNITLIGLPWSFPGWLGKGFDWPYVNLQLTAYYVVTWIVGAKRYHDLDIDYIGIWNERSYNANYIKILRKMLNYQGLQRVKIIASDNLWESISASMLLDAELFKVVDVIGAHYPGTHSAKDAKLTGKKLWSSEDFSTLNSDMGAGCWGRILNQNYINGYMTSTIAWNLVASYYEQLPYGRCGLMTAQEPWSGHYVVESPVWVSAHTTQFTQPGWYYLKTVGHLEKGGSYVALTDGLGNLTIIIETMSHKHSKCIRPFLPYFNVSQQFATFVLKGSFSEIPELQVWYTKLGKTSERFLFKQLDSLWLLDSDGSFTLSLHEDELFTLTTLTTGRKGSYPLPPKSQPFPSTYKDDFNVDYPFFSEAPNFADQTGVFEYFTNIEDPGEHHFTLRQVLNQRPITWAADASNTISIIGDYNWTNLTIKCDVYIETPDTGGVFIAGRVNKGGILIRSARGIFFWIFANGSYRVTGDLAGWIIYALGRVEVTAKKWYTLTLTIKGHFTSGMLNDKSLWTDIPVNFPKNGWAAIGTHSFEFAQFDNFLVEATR

For this test, the target named is Galactocerebrosidase (Homo sapiens) (UniProt P54803). Put plainly: A Novel Cell-Based Assay to Identify Small Molecules for B -Galactocerebrosidase. Note: 0% is about no effect; nearly all actives have a fitted effect of over 65% in size. The note with it: 145M-Twi-hGALC-G270D cells (Twitcher mouse brain line with human GALC G270D), HMU-beta-Gal fluorescence, 48 h; series mostly up to 57.5 µM; activation: at the top concentration. Summed up:
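Brain-derived Twitcher mouse 145M-Twi cells stably expressing human GALC-G270D or wild-type GALC, treated live, then residual GALC activity read by fluorescence of HMU-b-Gal substrate (0.1 mM final) in citrate-phosphate buffer pH 5.2 with sodium taurocholate. Signal increase indicates enhancement.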
`O=C(Cn1ncc2c3ccccc3n(Cc3ccc(F)cc3)c2c1=O)NCCCN1CCCCC1`: the “activation” value is inactive: -11.1%.
Under `O=C(CCS(=O)(=O)c1cccc2nonc12)Nc1ccc(Br)cc1` stands inactive: -8.58%; under `Cc1ccc(CCNC(=O)c2c(C)nn(-c3ccc(F)cc3)c2-n2cccc2)cc1`, inactive: -36%; under `CCOc1ccccc1NC(=O)N1CCC2(CC1)Oc1ccccc1C(=O)N2Cc1ccccc1F`, inactive: -15.8%.
Under `CC1=C(C(=O)Nc2ccccc2)C(c2ccc(O)cc2)n2nc(SCc3ccccc3)nc2N1` (stereo not drawn) stands inactive: -12.9%.
On to `CCc1ccc(NC(=O)C(=O)NCCc2sc3nc(-c4ccc(OC)cc4)nn3c2C)cc1`, for which the “activation” value is inactive: -1.55%.
Under `Cc1ccc(CNc2nc3ccc(C)cc3n3nnnc23)cc1` stands inactive: -8.36%; under `COc1ccc(Cl)cc1NC(=O)CCn1c(=O)oc2ccccc21`, inactive: -0.533%; under `O=c1[nH]c(SCc2ccc([N+](=O)[O-])cc2)nc2c1CCCC2`, inactive: -13.4%.
With `Cc1ccccc1NC(=O)CSc1ccc(-c2cccs2)nn1`, the “activation” value was inactive: -6.55%.
For `Cc1ccc(NC(=O)c2c(NC(=O)C(F)(F)F)sc3c2CCCCC3)cc1`, the “activation” value is inactive: -28.5%.
`O=C(Cn1c(-c2cccs2)cc2ccccc21)NCCCN1CCN(c2ccccc2F)CC1`: the “activation” value is inactive: -14.5%.
The figure for `O=C(CSc1nccn1Cc1ccccc1)Nc1ccc2c(c1)OCCO2` is inactive: -10.8%; for `O=C(CSc1nnc(COc2ccccc2)o1)Nc1cc(C(F)(F)F)ccc1Cl` it is inactive: -12.8%; for `Cc1ccc(CNC(=O)Cn2cccc2C(=O)c2ccccc2C)cc1` it is inactive: 3.48%.
Take `CCN(C(=O)c1cc2c(s1)-c1ccccc1OC2)c1cccc(C(F)(F)F)c1`: the “activation” value is inactive: -5.4%.
Regarding `COc1ccc(NC(=O)Nc2nnc(N(CC(C)C)CC(C)C)s2)c(OC)c1`, the “activation” value is inactive: -15.4%.
Under `COc1ccc(NC(=O)c2cc(C3CC3)nc3c2c(C)nn3-c2ccccc2)cc1OC` stands inactive: -2.17%.
Take `COc1ccc(-n2c(=O)c3ccc(C(=O)NCc4ccc(C)cc4)cc3n(Cc3ccc(Cl)cc3)c2=O)cc1`: the “activation” value is inactive: -11.2%.
As for `COc1ccc(-n2nc3c(N4CCCC(C(=O)NCCc5ccccc5C)C4)nnc(C)c3c2C)cc1` (stereo not drawn), the “activation” value is inactive: -9.58%.
Under `COCCn1c(C)cc(O)c(C(c2ccc(F)cc2)N2CCC(C)CC2)c1=O` (stereo not drawn) stands inactive: -19.8%; under `CCOc1ccccc1NC(=O)Cn1c(=O)n(C(C)C)c(=O)c2oc3ccccc3c21`, inactive: -17.4%; under `Cc1cccc(CSc2ncccc2C(=O)O)c1`, inactive: 17%.
Consider `O=S(=O)(c1ccc(-c2cnc(C3CC3)o2)cc1)N1CCN(c2ccccc2)CC1`, for which the “activation” value is inactive: -6.29%.
Under `CC1=C(C(=O)OC2CCCC2)C(c2ccccc2C(F)(F)F)CC(=O)N1` (stereo not drawn) stands inactive: -5.36%.
As to `COc1cccc(NC(=O)Cn2c(=O)n(-c3ccccc3)c(=O)c3c2c2cc(OC)ccc2n3C)c1`, the “activation” value is inactive: -17.6%.
Consider `Cc1ccc(N(CC(=O)Nc2ccc(C)c(Cl)c2)S(=O)(=O)c2cccs2)cc1`, for which the “activation” value was inactive: -11.9%.
Consider `COc1ccccc1CNC(=O)c1nnn(CC(=O)Nc2c(C)cccc2C)c1N`, for which the “activation” value is inactive: 0.598%.
In the case of `Cn1c(C(=O)Nc2ccc(OC(F)(F)F)cc2)cc2c(=O)n3ccccc3nc21`, the “activation” value is inactive: 3.85%.
The figure for `Cc1ccccc1OCC(=O)OCc1cc(=O)n2nc(-c3cccs3)sc2n1` is inactive: -0.541%.
In the case of `CC(=O)c1ccc(N2CCN(c3ncnc4c3cnn4-c3cc(Cl)ccc3C)CC2)cc1`, the “activation” value is inactive: -41.2%.
Under `Cc1ccc(CNC(=O)CN2N=C(c3ccccc3)CCC2=O)cc1` stands inactive: -17.5%; under `CCOc1ccccc1NC(=O)c1c(NC(=O)Cc2ccc(OC)cc2)sc2c1CCC2`, inactive: -14.1%.
The figure for `CCc1cccc(NC(=O)c2ccc3c(c2)c(C)c(C)n3Cc2ccc(F)cc2)c1` is inactive: -18.9%.
Under `Cc1ccc(OCC(=O)Nc2cccc(C(=O)OCc3cc(=O)n4c(C)csc4n3)c2)cc1` stands inactive: -4.35%.
As for `Cc1ccc(CN2COc3c(Cl)cc4c(-c5ccccc5)cc(=O)oc4c3C2)cc1`, the “activation” value was inactive: -20.8%.
The figure for `Cc1ccc(NC(=O)COc2ccc3oc4c(c3c2)CCCC4)cc1C` is inactive: -17%.
The figure for `O=C(c1ccc2c(c1)N(Cc1ccc(Cl)cc1)C(=O)c1ccccc1S2(=O)=O)N1CCN(c2ccccn2)CC1` is inactive: -9.99%.
The figure for `COc1cc(-c2nc3ccc(Cl)cn3c2Nc2ccc3c(c2)OCCO3)ccc1O` is inactive: -20.8%; for `Cc1cccc(CSc2nnc3[nH]c(=O)cc(-c4ccccc4)n23)c1` it is inactive: -7.62%; for `CCOc1ccc(NC(=O)N2CCC(N3CCCCC3)CC2)cc1` it is inactive: -14.1%.
On to `O=C(Nc1cc(Cl)cc(Cl)c1)c1ccc(F)c(S(=O)(=O)N2CCN(c3ccccc3F)CC2)c1`, for which the “activation” value is inactive: -14.4%.
`Cc1cc(NC(=O)C2CCCN(S(=O)(=O)c3cccc4nsnc34)C2)ccc1Br` (stereo not drawn): the “activation” value was inactive: -16.6%.
Consider `CCCOc1ccc(CNC(=O)CN2C(=O)c3cccnc3Oc3ccc(C)cc32)cc1`, for which the “activation” value is inactive: 2.03%.
Under `O=C(NCCCO)c1nn(-c2ccc(Cl)cc2)nc1CO` stands inactive: -10.5%; under `COC(=O)C1CCN(c2csc3ccc(Cl)cc3c2=O)CC1`, inactive: -9.95%.
Under `O=C(CN1C(=O)COc2ccc(S(=O)(=O)N3CCOCC3)cc21)N1CCN(c2ccccc2F)CC1` stands inactive: 7.28%; under `Cc1ccc(NC(=O)C(=O)NCC2(c3ccccc3)CCCC2)cc1C`, inactive: -11.7%.
As to `CCc1cccc(NC(=O)c2c(C)oc3nc(C)nc(N4CCCC4)c23)c1`, the “activation” value was inactive: 8.3%.
On to `COc1ccc(C(=O)N(Cc2cc(OC)c(OC)c(OC)c2)C2CCS(=O)(=O)C2)cc1Cl` (stereo not drawn), for which the “activation” value is inactive: -6.01%.
The figure for `CCc1ccc(NCc2cc3ccc(OC)cc3n(CC(=O)Nc3ccc(C)c(Cl)c3)c2=O)cc1` is inactive: 3.74%.
On to `COc1cc(OC)c(OC)cc1CNCCCSc1nnnn1C`, for which the “activation” value is inactive: -6.2%.
In the case of `CCc1ccc(OCc2cc(=O)n3cc(C)sc3n2)cc1`, the “activation” value is inactive: -14%.
The figure for `CCOc1ccc2oc(=O)cc(CN3CCN(c4ccccc4OC)CC3)c2c1` is inactive: -11.4%; for `COc1cccc(NC(=O)Cn2c(=O)n(CCc3ccc(OC)c(OC)c3)c(=O)c3ccccc32)c1` it is inactive: 2.19%.
In the case of `CCOc1ccc(-c2nc(SCC(=O)Nc3cc(F)ccc3F)n3[nH]c(=O)cc3n2)cc1`, the “activation” value is inactive: -15.1%.
As to `COc1ccc(-c2ccc(=O)n(CC(=O)Nc3ccc(OC)c(OC)c3)n2)cc1`, the “activation” value is inactive: -7.44%.
Under `Cc1ccc(C(=O)c2oc3ccccc3c2NC(=O)Cc2ccccc2)cc1` stands inactive: 7.39%.
The figure for `CCCCn1c(=N)n(CCOc2ccccc2OC)c2ccccc21` is inactive: -16.2%; for `CCC(=O)N1CCc2cc(OC)c(OC)cc2C1COc1ccc2c(C)cc(=O)oc2c1` (stereo not drawn) it is inactive: -11%; for `COc1ccc(C2c3c(n(C)c4ccccc34)C(=O)N2CC(=O)Nc2ccc(F)cc2)cc1` (stereo not drawn) it is inactive: -16.8%.
Turning to `COCCNC(=O)C1=CC(c2ccc3c(c2)OCO3)=NS(=O)(=O)N1C`, the “activation” value is inactive: -13.4%.
For the molecule `CC(C)c1ccc(CNc2n[nH]c(-c3ccco3)n2)cc1`, the “activation” value is inactive: -32.8%.

The record behind these values is PubChem BioAssay AID1159614 (National Center for Advancing Translational Sciences (NCATS), 2016).
